The chains are these.
B1: LINE1-mini (parent)
chain: GGCAGAGCUCAACACAGCGUGGCAAAGUGGCUGUGGCUAGACUGCC

Read counts are not given, so values of variants with three or more changes are uncertain.

The data set covers variants of B1. The data set is described as follows: self-cleavage, relative activity (ratio to wild type); higher = more cleavage; in vitro, sequencing; the parent is a self-cleaving ribozyme.
For the variant A4U G22U G27A C31U, the self-cleavage was found to be 0.17.
Take G5A C13A U32G G35A: the self-cleavage amounted to 0.09.
Take G5A A6C U28A G29C: the self-cleavage was 0.14.
Take G5A U38A G40C C45A: the self-cleavage amounted to 0.02.
In the case of G5A C10U C13G A25G A41G it was 0.04; in that of A4U G21C U43G C45U, 0.02.
In the case of G5A U9C A12C C18A G30U G35C G40A it was 0.02; in that of G5A G7C C31G, 0.11.
The result for G5A A14G U28A reads 0.1.
G5A C10A C13U A16G G19A G30U: the self-cleavage is 0.04.
Turning to A4U G5U G17C G27A, the self-cleavage was 0.01.
Turning to G5A C13U A41U, the self-cleavage was found to be 0.08.
For G5A A16G G29A U34G, the self-cleavage came out at 0.03.
In the case of A4U U20A C31U it was 0.05; in that of G5A A11C C13A A14G G33A, 0.02; in that of G5A G30U G33A, 0.1.
As for A4U G19A G40A C42U U43G, the self-cleavage worked out at 0.14.
In the case of A4U G27C G40A it was 0.06.
As for A4U U34A G40U C42U, the self-cleavage is 0.08.
The result for A4U G21U U34G G40U reads 0.01.
In the case of G5C A12U A14U G44C, the self-cleavage is 0.07.
G5A A6C A11G A12C C13A G27A: the self-cleavage turned out to be 0.03.
Regarding A4U G5A A11C, the self-cleavage worked out at 0.05.
With G5A C8U A16U, the self-cleavage came out at 0.36.
Turning to G5A U28G G40C, the self-cleavage is 0.08.
On to G5A G7A A11U U43C C46A, for which the self-cleavage was 0.03.
As to G5A C18A G29U G36C, the self-cleavage was 0.03.
The result for G5A A6U A11U C42U reads 0.07; that for G5A G17A G21U G27C, 0.08; that for G5A A6G C8A U38A, 0.02.
The result for G5A C10A C13A G33C reads 0.01; that for G5A G22C G40A, 0.13; that for G5A A14C U32C U43A, 0.21.
Regarding A4U G5A G17C C18G G36A, the self-cleavage is 0.08.
With G5A C18A C23U U28G G40U, the self-cleavage came out at 0.13.
In the case of G5A G7A C15A U38A it was 0.06.
Consider G5A A11G G22C U32G A41C G44C, for which the self-cleavage amounted to 0.02.
A4U G19U C45U: the self-cleavage was determined as 0.04.
For G5A C23G G35C C37U, the self-cleavage is 0.1.
With G5A A6G U9A, the self-cleavage worked out at 0.36.
For G5A G27C G36U, the self-cleavage worked out at 0.65.
For G5A A6U C15A G17C G22U A25G, the self-cleavage amounted to 0.03.
On to A4U G21U G22U G33U C46G, for which the self-cleavage was 0.18.
In the case of G5A A6U C18A it was 0.15; in that of G5A C23A A24U U34G, 0.05; in that of G5A G35C A41C, 0.05.
As for A4U G30U G35A A41U, the self-cleavage came to 0.03.
The result for G5C A11C G40C reads 0.03.
For the variant G5C A12U G27U G30U, the self-cleavage amounted to 0.09.
The result for G5C A12C A24G G33A C42U reads 0.08.
With G5A C18A G35A G44C, the self-cleavage was found to be 0.01.
In the case of A4U G5C A6C C8A G19A A26U G36C U43C it was 0.84; in that of A4U G5U G19U G21A U34A G36A, 0.04; in that of A4U G7U A12C G30A U32C G36C, 0.02.
Consider A4U U34A U38C, for which the self-cleavage came to 0.08.
With A4U G19A C46A, the self-cleavage was determined as 0.34.
With G5A G17C A41G, the self-cleavage worked out at 0.04.
The result for G5A G22A C23U U32C G35U reads 0.03; that for A4U U20G G22U, 0.06; that for G5A C18A U43C C45U C46G, 0.01.
Turning to G5A G35C A39G, the self-cleavage worked out at 0.05.
For A4U G22C A24G G27A G36C, the self-cleavage came to 0.1.
The result for G5C A6C G22A C23U C45G reads 0.04; that for G5A C8A G22A C37A C42A, 0.04; that for G5A G21A C31U U38G, 0.02.
As for G5A C18A G29C G30U C45U, the self-cleavage came out at 0.06.
For G5A G27A G29A U34C, the self-cleavage was found to be 0.04.
Turning to G5C A12U A25C G30C, the self-cleavage came out at 0.01.
In the case of A4U G5U U32A, the self-cleavage came out at 0.03.
For the variant G5A C10A A11C U20A G21C G36C, the self-cleavage was 0.01.
Regarding G5C A6C A11G A26U, the self-cleavage worked out at 0.02.
Take G5A G17U C45A: the self-cleavage worked out at 0.04.
Take A4U G17A A24U: the self-cleavage worked out at 0.06.
Turning to G5A A26G G27U, the self-cleavage came out at 0.18.
On to G5A C18A A24U, for which the self-cleavage was 0.07.
Turning to A4U G5A G22A C23A, the self-cleavage was determined as 0.06.
On to A4U G5U C13G, for which the self-cleavage was determined as 0.12.
For the variant G5A U32C G40U, the self-cleavage worked out at 0.03.
In the case of G5A A6U U34A it was 0.04; in that of A4U U34C C37U A41U, 0.06.
With G5C A6G G19A G30U C31U, the self-cleavage is 0.08.
Regarding G5C A6G A14U C23U C31U G33U U38G, the self-cleavage was 0.11.
With G5A U9C A11C G17C C31U, the self-cleavage is 0.03.
For the variant A4U G17U G29A, the self-cleavage came to 0.24.
The result for G5A A24U G44A reads 0.06; that for G5A C18A C23U A26G, 0.03.
In the case of G5C A6C C8G A16C G27C A41G it was 0.01; in that of G5A C10G U34C C46U, 0.02.
In the case of G5A C18A G27A G36C C42G U43A it was 0.01; in that of G5C A14U A16G G22U C23G G29U U43C C45A, 0.01.
For the variant G5A G22A U34A C46U, the self-cleavage turned out to be 0.07.
G5A C31G U34C C42A: the self-cleavage came to 0.03.
For A4U G7U C23A G30U, the self-cleavage was 0.4.
In the case of A4U G22U C42A G44A it was 0.03; in that of A4U U20G C23A A26G G30U A39U, 0.02.
The result for G5C A14C G21C U32C C45G reads 0.06; that for G5C A11C G29U, 0.05; that for A4U G5A G19C G21U A26G G27U G29C, 0.12.
Take G5A G7U C15U A25U A26C C31U: the self-cleavage came to 0.13.
For the variant G5A U9G C10U A14G C31U, the self-cleavage turned out to be 0.05.
In the case of G5C A12U U32G C42U, the self-cleavage worked out at 0.02.
For the variant G5A C15A G17U A25C G27C, the self-cleavage was found to be 0.01.
In the case of G5A A12G C13A C18U G30A G35A, the self-cleavage turned out to be 0.14.
In the case of A4U G7A A11G G29U it was 0.03.
As for G5C A6C U20G C31A U32A U38A, the self-cleavage worked out at 0.02.
On to A4U U9C G17U A26C G35A A39G, for which the self-cleavage came out at 0.01.
On to A4U U9G G27C, for which the self-cleavage amounted to 0.06.
Take G5A C8A G27U C45G: the self-cleavage was found to be 0.13.
As to A4U G21A A26U G29U, the self-cleavage was determined as 1.15.
In the case of G5C A6C G21U, the self-cleavage came to 0.07.
In the case of G5A C15U G29A G36C it was 0.02.
As for G5A C23G C31G C46U, the self-cleavage amounted to 0.04.
In the case of G5A C10U G21C G22A it was 0.01; in that of G5C A6U G19A, 0.09; in that of G5C A6C A14G C23U, 0.09.
Consider G5C A12U G29A A41G, for which the self-cleavage was 0.02.
In the case of G5A G7U U9C C23U C42G, the self-cleavage stood at 0.1.
On to G5A A16G G35C, for which the self-cleavage stood at 0.03.
Turning to G5A U20C U28C C46U, the self-cleavage was 0.05.
In the case of A4U G22U U32C it was 0.05.
The result for G5A U20G C45A reads 0.13; that for A4U G19U A24U, 0.06; that for G5A C23G U28G C31G G35C, 0.1.
Consider G5C A6G G29U, for which the self-cleavage was determined as 0.12.
With A4U U9G C15A G36U, the self-cleavage came to 0.03.
On to G5A C18U G19A G21U, for which the self-cleavage came out at 0.22.
G5A A16C G22A: the self-cleavage is 0.06.
The result for G5A C8G G17A reads 0.03.
Regarding G5A C10U A11G C13U G22C A24G U28A, the self-cleavage is 0.01.
In the case of A4U U9C C13G A26C C45A it was 0.02; in that of A4U U32G C37G, 0.02; in that of A4U G17C C18U G35U A39G, 0.04.
For A4U U34A C37A, the self-cleavage came to 0.02.
Regarding G5A G30C A39C, the self-cleavage was found to be 0.02.
On to A4U G7U G36U G44A, for which the self-cleavage stood at 0.31.
Take G5A A24C G29U: the self-cleavage came out at 0.05.
In the case of G5A G30C G36U C45G it was 1.03; in that of G5A C13A G27U U34C G35C, 0.07; in that of G5C A11G C13U C15A G36C U38C, 0.01.
Take G5A C8U U9C C37U: the self-cleavage turned out to be 0.03.
In the case of G5A C31G U34A C37G U43A it was 0.
In the case of G5A U28G G33A it was 0.41.
The result for G5A G7U A11U reads 0.14; that for G5A G27C G36A G44U, 0.18; that for G5A A25C U28C G29U G36C, 0.03.
G5A C15G G35C G44C C46U: the self-cleavage was 0.04.
Take G5A C10U A11C: the self-cleavage is 0.02.
Consider G5A C10U G30U G33A C37A, for which the self-cleavage is 0.03.
For the variant G5A C23U U32C, the self-cleavage was found to be 0.05.
With G5A A25G G35C C37U, the self-cleavage amounted to 0.04.
In the case of G5A C8A U9A U20A G21U G29A G40C, the self-cleavage turned out to be 0.04.
As to A4U G33U A39C, the self-cleavage worked out at 0.04.
For the variant A4U G5A G17U G33A C37U U38A, the self-cleavage amounted to 0.05.
In the case of A4U U32G C42G it was 0.1; in that of G5A G27U G35C, 0.06; in that of G5A A6C C13A G19A G22U, 0.14.
For G5A G22A C23A A26U U34A C37U A39C, the self-cleavage was determined as 0.01.
For the variant G5A A6C U9A C10G G44C, the self-cleavage was found to be 0.03.
As for A4U U9A C10U G19U U43C, the self-cleavage came out at 0.01.
As to G5C A12G C23G U32G, the self-cleavage came to 0.08.
Consider G5A A6U C37U G40A, for which the self-cleavage worked out at 0.03.
As for G5A G7C A39G, the self-cleavage was 0.1.
Turning to A4U G7C U20G G22A, the self-cleavage is 0.02.
For the variant A4U G17A U34C, the self-cleavage is 0.06.
In the case of G5A C18U U43C it was 0.1; in that of G5A G36A G40A, 0.23.
Take G5A A6G G35U: the self-cleavage is 0.06.

These data come from the RNAGym collection of RNA variant scans (doi:10.7554/elife.90254).
